Reference: the supplement of paper PMC6657886
MIC of clinical N. gonorrhoeae isolates (2015-2017) by agar dilution on GC agar with 1% IsoVitaleX (ranges not stated); higher = less susceptible. No active / inactive call per row; the paper counts benzylpenicillin above 1 and ceftriaxone above 0.125 mg/L as resistant (EUCAST). The method is stated for benzylpenicillin and ceftriaxone and assumed for the other drugs. '<=' is inferred from pile-ups at the end values. Isolates are numbered anew.

What was measured:
Experiment in all cases: Agar dilution on enriched GC agar; resistance determinants by microarray.
[1] = compound: CC1(C)S[C@@H]2[C@H](NC(=O)Cc3ccccc3)C(=O)N2[C@H]1C(=O)O [benzylpenicillin]
[2] = compound: CN[C@@H]1[C@H](O)[C@H](NC)[C@H]2O[C@@]3(O)C(=O)C[C@@H](C)O[C@H]3O[C@@H]2[C@H]1O [spectinomycin]
[3] = compound: CC[C@H]1OC(=O)[C@H](C)[C@@H](O[C@H]2C[C@@](C)(OC)[C@@H](O)[C@H](C)O2)[C@H](C)[C@@H](O[C@@H]2O[C@H](C)C[C@H](N(C)C)[C@H]2O)[C@](C)(O)C[C@@H](C)CN(C)[C@H](C)[C@@H](O)[C@]1(C)O [azithromycin]
[4] = compound: CN(C)[C@@H]1C(O)=C(C(N)=O)C(=O)[C@@]2(O)C(O)=C3C(=O)c4c(O)cccc4[C@@](C)(O)[C@H]3C[C@@H]12 [tetracycline]
[5] = compound: CO/N=C(\C(=O)N[C@@H]1C(=O)N2C(C(=O)O)=C(CSc3nc(=O)c(O)nn3C)CS[C@H]12)c1csc(N)n1 [ceftriaxone]

## Neisseria gonorrhoeae isolate 301 (blaTEM plasmid: no, gyrA: wild type, mtrR promoter: wild type, parC: wild type, penA: wild type, ponA: wild type, porB: wild type, rpsJ: wild type, tetM plasmid: no)
[1]
  MIC: ≤ 0.015 µg/mL
[2]
  MIC: 16 µg/mL
[3]
  MIC: 0.12 µg/mL
[4]
  MIC: 0.25 µg/mL
[5]
  MIC: ≤ 0.002 µg/mL

## Neisseria gonorrhoeae isolate 383 (blaTEM plasmid: no, gyrA: wild type, mtrR promoter: wild type, parC: wild type, penA: ins345Asp, ponA: wild type, porB: wild type, rpsJ: wild type, tetM plasmid: no)
[1]
  MIC: 0.03 µg/mL
[2]
  MIC: 16 µg/mL
[3]
  MIC: 0.06 µg/mL
[4]
  MIC: 0.25 µg/mL
[5]
  MIC: ≤ 0.002 µg/mL

## Neisseria gonorrhoeae isolate 18 (blaTEM plasmid: no, gyrA: wild type, mtrR promoter: wild type, parC: wild type, penA: ins345Asp, ponA: wild type, porB: Lys120, Asn121, rpsJ: Met57, tetM plasmid: no)
[1]
  MIC: 0.5 µg/mL
[2]
  MIC: 16 µg/mL
[3]
  MIC: 0.5 µg/mL
[4]
  MIC: 4 µg/mL
[5]
  MIC: 0.004 µg/mL

## Neisseria gonorrhoeae isolate 470 (blaTEM plasmid: no, gyrA: wild type, mtrR promoter: wild type, parC: wild type, penA: ins345Asp, ponA: wild type, porB: wild type, rpsJ: wild type, tetM plasmid: no)
[1]
  MIC: ≤ 0.015 µg/mL
[2]
  MIC: 32 µg/mL
[3]
  MIC: 0.008 µg/mL
[4]
  MIC: 0.5 µg/mL
[5]
  MIC: ≤ 0.002 µg/mL

## Neisseria gonorrhoeae isolate 242 (blaTEM plasmid: no, gyrA: Phe91, Asn 95, mtrR promoter: -35delA, parC: Arg87, Glu91, penA: ins345Asp, ponA: Pro421, porB: Lys120, Gly121, rpsJ: Met57, tetM plasmid: no)
[1]
  MIC: 1 µg/mL
[2]
  MIC: 32 µg/mL
[3]
  MIC: 1 µg/mL
[4]
  MIC: 2 µg/mL
[5]
  MIC: 0.032 µg/mL

## Neisseria gonorrhoeae isolate 433 (blaTEM plasmid: no, gyrA: Phe91, Asn95, mtrR promoter: wild type, parC: wild type, penA: ins345Asp, ponA: Pro421, porB: Asp120, Gly121, rpsJ: Met57, tetM plasmid: no)
[1]
  MIC: 0.12 µg/mL
[2]
  MIC: 8 µg/mL
[3]
  MIC: 0.12 µg/mL
[4]
  MIC: 0.5 µg/mL
[5]
  MIC: 0.008 µg/mL

## Neisseria gonorrhoeae isolate 282 (blaTEM plasmid: no, gyrA: wild type, mtrR promoter: wild type, parC: wild type, penA: ins345Asp, ponA: Pro421, porB: wild type, rpsJ: Met57, tetM plasmid: no)
[1]
  MIC: 0.03 µg/mL
[2]
  MIC: 16 µg/mL
[3]
  MIC: 0.06 µg/mL
[4]
  MIC: 0.5 µg/mL
[5]
  MIC: ≤ 0.002 µg/mL

## Neisseria gonorrhoeae isolate 244 (blaTEM plasmid: no, gyrA: wild type, mtrR promoter: wild type, parC: wild type, penA: wild type, ponA: wild type, porB: wild type, rpsJ: wild type, tetM plasmid: no)
[1]
  MIC: ≤ 0.015 µg/mL
[2]
  MIC: 16 µg/mL
[3]
  MIC: 0.12 µg/mL
[4]
  MIC: 0.25 µg/mL
[5]
  MIC: ≤ 0.002 µg/mL

## Neisseria gonorrhoeae isolate 178 (blaTEM plasmid: no, gyrA: wild type, mtrR promoter: wild type, parC: wild type, penA: wild type, ponA: wild type, porB: wild type, rpsJ: wild type, tetM plasmid: no)
[1]
  MIC: ≤ 0.015 µg/mL
[2]
  MIC: 32 µg/mL
[3]
  MIC: 0.12 µg/mL
[4]
  MIC: 0.25 µg/mL
[5]
  MIC: ≤ 0.002 µg/mL

## Neisseria gonorrhoeae isolate 394 (blaTEM plasmid: no, gyrA: Phe91, Gly95, mtrR promoter: wild type, parC: Arg87, Gly91, penA: ins345Asp, ponA: Pro421, porB: Asp120, Ala121, rpsJ: Met57, tetM plasmid: no)
[1]
  MIC: 0.25 µg/mL
[2]
  MIC: 32 µg/mL
[3]
  MIC: 0.015 µg/mL
[4]
  MIC: 0.5 µg/mL
[5]
  MIC: 0.008 µg/mL
